Measured values from paper PMC9241269.
These are yes or no findings as the source states them, for the method shown. In cells and extracts the contact can be indirect. Some binding calls cover weakened binding; strength is not graded here.

The chains behind the UniProt entries cited, without tags or fusion partners. Where a name states a change or a piece, a line headed by the entry shows the natural chain unless it says otherwise.
UniProt P45983: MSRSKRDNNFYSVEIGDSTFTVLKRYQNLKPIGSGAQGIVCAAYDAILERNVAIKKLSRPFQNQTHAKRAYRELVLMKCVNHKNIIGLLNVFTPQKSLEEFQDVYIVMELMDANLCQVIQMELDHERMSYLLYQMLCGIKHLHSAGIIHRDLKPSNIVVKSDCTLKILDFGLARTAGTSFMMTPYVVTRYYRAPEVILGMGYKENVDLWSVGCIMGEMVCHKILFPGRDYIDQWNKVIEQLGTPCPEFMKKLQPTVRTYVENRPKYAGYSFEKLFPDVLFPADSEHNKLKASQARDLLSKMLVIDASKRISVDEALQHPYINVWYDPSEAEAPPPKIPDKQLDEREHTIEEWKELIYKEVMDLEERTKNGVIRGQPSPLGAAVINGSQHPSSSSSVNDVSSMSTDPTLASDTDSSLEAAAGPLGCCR
UniProt O14733: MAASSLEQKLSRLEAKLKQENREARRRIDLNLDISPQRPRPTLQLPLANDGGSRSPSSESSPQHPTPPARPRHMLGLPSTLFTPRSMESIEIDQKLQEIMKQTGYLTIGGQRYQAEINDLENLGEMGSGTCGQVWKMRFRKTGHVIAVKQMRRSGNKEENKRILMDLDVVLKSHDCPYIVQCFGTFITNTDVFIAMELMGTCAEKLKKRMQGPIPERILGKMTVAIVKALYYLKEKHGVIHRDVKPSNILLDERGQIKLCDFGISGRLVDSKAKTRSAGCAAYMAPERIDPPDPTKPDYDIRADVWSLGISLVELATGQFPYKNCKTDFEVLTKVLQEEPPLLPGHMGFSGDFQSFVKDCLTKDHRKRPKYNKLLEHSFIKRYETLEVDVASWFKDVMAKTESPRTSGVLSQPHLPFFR
UniProt Q9BT88: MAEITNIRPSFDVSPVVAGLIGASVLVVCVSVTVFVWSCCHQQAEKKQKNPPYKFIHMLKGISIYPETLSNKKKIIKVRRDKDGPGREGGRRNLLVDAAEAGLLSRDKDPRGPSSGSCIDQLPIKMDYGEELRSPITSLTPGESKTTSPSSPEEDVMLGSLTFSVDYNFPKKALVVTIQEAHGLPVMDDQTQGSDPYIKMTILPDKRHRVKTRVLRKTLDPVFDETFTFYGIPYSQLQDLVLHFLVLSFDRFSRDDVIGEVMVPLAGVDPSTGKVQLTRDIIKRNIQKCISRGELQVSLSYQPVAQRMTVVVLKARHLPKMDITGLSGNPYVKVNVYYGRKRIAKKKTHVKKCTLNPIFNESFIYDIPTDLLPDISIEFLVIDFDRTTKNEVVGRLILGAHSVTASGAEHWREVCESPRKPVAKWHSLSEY

What was measured:
Assay in all cases: co-IP; MKN1 and/or HEK293T cells co-transfected with the tagged proteins; cell lysates immunoprecipitated with anti-Myc or anti-GFP antibody, western blot (Fig. 3A-E); also in MKK7 knocked-down cells (JNK1-SYT11 binding inhibited)
Myc-JNK2 = Myc-JNK2 (UniProt P45984)
Myc-JNK1 T183A = Myc-JNK1 T183A (UniProt P45983)
Myc-JNK1 WT = Myc-JNK1 WT (UniProt P45983)
Myc-JNK1 Y185F = Myc-JNK1 Y185F (UniProt P45983)
Myc-MKK7 = Myc-MKK7 (UniProt O14733)

| binding (Myc-JNK2) | binding (Myc-JNK1 T183A) | binding (Myc-JNK1 WT) | binding (Myc-JNK1 Y185F) | binding (Myc-MKK7) | Substance |
| --- | --- | --- | --- | --- | --- |
| binds | no binding | binds | no binding | binds | GFP-SYT11 (synaptotagmin 11) (from UniProt Q9BT88 1-431) |
|  |  | binds |  |  | HA-MKK7 (from UniProt O14733 1-419) (enzyme) |
